This note sets out measurements from PubChem BioAssay AID1508624 (National Center for Advancing Translational Sciences (NCATS), 2021).

The campaign covered roughly 48,000 compounds. About 120 (0.25%) were called active. About 4% were inconclusive and are not listed. Calls follow the shape of the dose curve; as a rule, active = well fitted activation curve with a large enough effect; inconclusive = small, poorly fitted or top-dose-only effect, or another doubt; inactive = no such curve, though single readings can be large or run the other way. The list shows a part of the results.

The assay in a line: Primary qHTS for Identification of Small Molecule Activators of Huntingtin-Antisense Promoter Activity. Also: nearly all actives have a fitted effect of over 55% in size. The settings on record: HEK293 HTT-AS promoter firefly luciferase reporter, 24 h; series mostly up to 57.5 µM; activity change, positive = activation: at the top concentration. A digest of the protocol:
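HEK293 cells carrying firefly luciferase reporters were seeded at 2,500 per well in Opti-MEM and cultured for 24 h. They were then treated with compounds at up to 57.5 uM final for 24 h at 37 degrees C before Dual-Glo luminescence readout.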
(In qHTS, concentration-response curves come from the screen itself.)
Take `CCOc1ccccc1C(=O)N(Cc1cccs1)c1ccc(Cl)cc1`: the “activity change, positive = activation” value is inactive: -30.1%.

Consider `O=C(Nc1ccccc1)c1cn(-c2ccccc2)nc1-c1ccccc1`, for which the “activity change, positive = activation” value is inactive: -10.3%. On to `O=C(NCCCNc1nc(Nc2cccc(NC(=O)N3CCCC3)c2)ncc1I)c1cccs1`, for which the “activity change, positive = activation” value is inactive: -45.7%. `Cc1cccc(-n2c3nc(=O)[nH]c(=O)c-3cc3c(C)nn(-c4ccccc4)c32)c1C`: the “activity change, positive = activation” value was inactive: -7.05%. The figure for `COc1ccccc1NC(=O)CSC1=Nc2ccccc2N=C(c2ccc(F)cc2)C1` is inactive: -13.1%; for `CCN(CC)C(=O)CSc1nc2ccccc2c(=O)n1Cc1ccco1` it is inactive: -14.5%. Take `Cc1ccc(NC(=O)Cn2c(-c3cncs3)nc3ccccc32)cc1Br`: the “activity change, positive = activation” value is inactive: -26.5%.

Turning to `COc1ccc(Cl)cc1NC(=O)N1CC(=O)Nc2sc3c(c2C1c1ccccc1)CCCC3` (centres undefined), the “activity change, positive = activation” value was inactive: -29.4%. Under `CCCc1nccn1S(=O)(=O)c1cc(Br)ccc1OC` stands inactive: 6.53%.

As for `COc1cc2c(C(=O)N(C)c3cc(Cl)ccc3OC)cn(CC(C)C)c(=O)c2cc1OC`, the “activity change, positive = activation” value was inactive: -22.5%. As for `CCN(C(=O)Cn1c(=O)n(CC2CCC(C(=O)NC)CC2)c(=O)c2sccc21)c1ccccc1` (centres undefined), the “activity change, positive = activation” value was inactive: -6.6%. Under `Cc1nn(CCCC(=O)Nc2cccc(F)c2)c(=O)c2c1sc1ccccc12` stands inactive: -20.7%; under `COc1ccc(NC(=O)CN2C(=O)CCc3cc(S(=O)(=O)N4CCOCC4)ccc32)cc1Cl`, inactive: -18.3%. Under `c1cc(CN2CCCNCCNCCCNCC2)ccc1CN1CCCNCCNCCCNCC1` stands inactive: -24%; under `COc1ccccc1C(=O)Nc1nc2nc(-c3ccccc3)cc(=O)n2[nH]1`, inactive: 0.649%. Under `CCc1nn2c(=O)cc(COC(=O)c3ccc(NC(=O)c4cccs4)cc3)nc2s1` stands inactive: 4.47%; under `Cc1ccccc1NS(=O)(=O)c1ccc2[nH]cc(C(=O)NC(C)c3ccccc3)c(=O)c2c1` (centres undefined), inactive: -44.6%.

Consider `CCOc1ccccc1CNC(=O)Cn1ncn2nc(-c3cccs3)cc2c1=O`, for which the “activity change, positive = activation” value is inactive: 0.428%. Under `COc1ccc(Nc2nnc(-c3cc4c(ccc5ccccc54)oc3=O)s2)cc1` stands inactive: 4.3%. The figure for `COc1ccccc1CCNC(=O)C(=O)NCC(c1cccs1)S(=O)(=O)c1ccc(C)cc1` (centres undefined) is inactive: -34.9%.

For the compound `COC(=O)c1c(NC(=O)c2nc(SCc3cccc(C)c3)ncc2Cl)sc2c1CCCC2`, the “activity change, positive = activation” value was inactive: -12.9%. Under `COc1ccc(-n2nnc(-c3nc(-c4cccs4)no3)c2N)cc1OC` stands inactive: 13.6%; under `CC(=O)N1CCCC1c1nc2ccccc2n1Cc1cccc(Cl)c1` (centres undefined), inactive: -14.9%. Under `CCc1ccc(CNC(=O)COc2cc(=O)n(CC)c3ccccc23)cc1` stands inactive: -28.7%; under `Cc1ccc(-c2noc(-c3ccc(NCc4ccco4)c([N+](=O)[O-])c3)n2)cc1`, inactive: 17.4%; under `COc1cc(NC(=O)CC(c2ccc(C)cc2)N2Cc3ccccc3C2=O)cc(OC)c1` (centres undefined), inactive: -26.1%. For `CC1=C(c2ccc(F)cc2)S(=O)(=O)NC1=NCc1ccccc1F`, the “activity change, positive = activation” value was inactive: -17.3%. Consider `COc1ccc(-c2nc(C)c(CCNC(=O)C(=O)Nc3ccccc3C#N)s2)cc1OC`, for which the “activity change, positive = activation” value is inactive: 6.63%. As for `COc1cc(C2CC(=O)c3c([nH]c(C(=O)OCC4CCCCC4)c3C)C2)cc(OC)c1OC` (centres undefined), the “activity change, positive = activation” value is inactive: -51.2%.

In the case of `CCCN(C(=O)c1cn(C)c(=O)c2ccccc12)c1ccccc1C`, the “activity change, positive = activation” value is inactive: -9.07%. Under `CCOc1ccccc1C(=O)N(Cc1cc(OC)c(OC)c(OC)c1)C1CCS(=O)(=O)C1` (centres undefined) stands inactive: 9.14%. As to `O=C(CN1CCSc2ccccc21)NCc1ccccc1F`, the “activity change, positive = activation” value was inactive: 6.07%. On to `COc1ccc2nc(N(Cc3cccnc3)C(=O)C3COc4ccccc4O3)sc2c1` (centres undefined), for which the “activity change, positive = activation” value was inactive: 18.4%. Under `CN(C)CC[C@@H](c1ccc(Br)cc1)c1ccccn1` stands inactive: -5.25%; under `COc1ccc(N2CCN(S(=O)(=O)CCNC(=O)C3CC(=O)N(c4ccccc4)C3)CC2)cc1` (centres undefined), inactive: 12.8%. Under `CCCOc1ccc(CN(C(=O)c2cc(=O)c3ccc(C)cc3o2)C2CCS(=O)(=O)C2)cc1` (centres undefined) stands inactive: -24.1%.

As to `Cc1nc(CC(=O)Nc2cc(Cl)ccc2C)cs1`, the “activity change, positive = activation” value was inactive: -14.7%. As for `COc1cc(C)ccc1OCCSc1nc(-c2cccc(C)c2)nc2cc(=O)[nH]n12`, the “activity change, positive = activation” value was inactive: 9.76%.

As for `COc1cccc(C(=O)CC2(O)C(=O)Nc3ccc(Cl)cc32)c1` (centres undefined), the “activity change, positive = activation” value was inactive: -17.7%. Under `CCN(CC)CCCNC(=O)c1ccc2nc(N3CCCCC3)sc2c1` stands inactive: -48%; under `CCNC(=O)c1ccc2nc(CCc3ccccc3)oc2c1`, inactive: 28%; under `Cc1cc(Nc2ccccc2C)nc(-n2nc(C)cc2C)n1`, inactive: -21.3%. Consider `COc1ccc(CCNC(=O)c2cc(C)nc3c2c(C)nn3-c2ccc(C)cc2)cc1OC`, for which the “activity change, positive = activation” value is inactive: -22.7%. The figure for `Cc1n[nH]c(C)c1S(=O)(=O)N1CCCC(C(=O)Nc2ccc(Br)cc2)C1` (centres undefined) is inactive: -33.2%; for `Cc1nn2c(C)c(C(=O)N3CCN(c4ccccc4)CC3)cnc2c1-c1ccccc1` it is inactive: 3.48%. The figure for `Cc1ccc(CCNC(=O)c2cc3c(=O)oc4ccccc4c3s2)cc1` is inactive: -9.73%; for `COc1ccccc1OCCn1c(COc2cc(C)ccc2C)nc2ccccc21` it is inactive: -6.4%. The figure for `COc1cccc(CNC(=O)CNS(=O)(=O)c2ccc3nc(C)sc3c2)c1` is inactive: -13%; for `COc1cc(NC(=O)CSc2nc3ccccc3nc2Cc2ccccc2OC)cc(OC)c1` it is inactive: -16.9%. `CCOc1ccccc1Nc1sc(C(=O)c2ccccc2)c(N)c1C(=O)NCCc1ccccc1`: the “activity change, positive = activation” value was inactive: -3.92%. Under `O=C(c1ccc(Cl)cc1)N(Cc1ccco1)Cc1ccco1` stands inactive: -22.7%. With `COc1cc(OC)cc(C(=O)Nc2ccc3oc(-c4ccccc4C)nc3c2)c1`, the “activity change, positive = activation” value was inactive: -8.96%.

For the compound `CCC(=O)Nc1ccc(C)cc1-c1nc2ccccc2n(CC(=O)Nc2ccccc2Cl)c1=O`, the “activity change, positive = activation” value was inactive: -14.8%. Consider `COc1ccc(NC(=O)Cn2c(=O)n(CC3CCCO3)c(=O)c3ccccc32)c(OC)c1` (centres undefined), for which the “activity change, positive = activation” value is inactive: -10.1%.

For the compound `CCN(CC)S(=O)(=O)c1nnc(NC(=O)c2ccccc2Cl)s1`, the “activity change, positive = activation” value was inactive: -8.42%. On to `CC(C)CNc1nc(NC(C)(C)C)nc(Oc2ccc(=O)n(-c3ccccc3)n2)n1`, for which the “activity change, positive = activation” value was inactive: -36.5%. The figure for `COc1ccc(C)cc1NC(=O)COCc1cc(-c2cccs2)on1` is inactive: -7.44%; for `CC(C)n1cnc2c(NCCc3ccc(O)cc3)nc(-c3csc4ccccc34)nc21` it is inactive: -66.9%. Under `CCOc1ccc(NC(=O)CSc2nc3c(c(=O)[nH]2)CCCC3)cc1` stands inactive: -20.1%; under `O=C(CCS(=O)(=O)c1cc(Br)cc2c1N(C(=O)C1CC1)CC2)N1CCN(c2ccc(F)cc2)CC1`, inactive: -15.2%; under `COc1cc(C2c3c(oc4ccc(F)cc4c3=O)C(=O)N2c2nc(C)c(C)s2)cc(OC)c1OC` (centres undefined), inactive: -3.65%.

For `Cc1ccc(N(C)C(=O)Cn2cnc3onc(-c4ccc(F)cc4)c3c2=O)cc1C`, the “activity change, positive = activation” value was inactive: -34.2%. The figure for `CC1(C)[C@H](O[C@H]2O[C@H](C(=O)O)[C@@H](O)[C@H](O)[C@H]2O[C@@H]2O[C@H](C(=O)O)[C@@H](O)[C@H](O)[C@H]2O)CC[C@@]2(C)[C@H]1CC[C@]1(C)[C@H]2C(=O)C=C2[C@H]3C[C@@](C)(C(=O)O)CC[C@]3(C)CC[C@]21C` is inactive: -7.04%. The figure for `COc1ccc(CCNC(=O)CCCn2c(=O)c3ccccc3n(Cc3ccc(C)cc3)c2=O)cc1OC` is inactive: -6.77%; for `Cc1ccc2ncc(C(=O)NCCc3ccc(S(N)(=O)=O)cc3)c(=O)n2c1` it is inactive: -1.45%. The figure for `CC(C)OCCCNC(=O)CCCn1c(=O)[nH]c2ccsc2c1=O` is inactive: -13.8%; for `Cc1ccc(CNC(=O)C2CCC(CNS(=O)(=O)c3ccc4c(c3)CCCC(=O)N4)CC2)cc1` (centres undefined) it is inactive: -3.36%. As to `CCNC(=O)c1cc2c(-c3cc(OCCN4CCCC4)c(Cl)cc3Cl)nc(N)nc2s1`, the “activity change, positive = activation” value was inactive: -40.5%. Under `CCOc1ccc(CNC(=O)c2cc(=O)[nH]c3ccc(S(=O)(=O)N4CCCCC4)cc23)cc1` stands inactive: -7.59%. For the compound `Cc1cc(C)cc(Nc2cc(C(=O)NCCCN(Cc3ccccc3)C(C)C)c3ccccc3n2)c1`, the “activity change, positive = activation” value was inactive: -49%. As for `COc1ccc(N2CCN(S(=O)(=O)c3csc(C(N)=O)c3)CC2)cc1`, the “activity change, positive = activation” value is inactive: -25.6%. Under `Cc1cccc(C)c1OCCSc1nc2ccccc2n1CC(=O)O` stands inactive: -10.1%; under `CCN(Cc1ccccc1)C(=O)Cn1c(=O)n(-c2ccc(F)c(Cl)c2)c(=O)c2sc3ccccc3c21`, inactive: -6.59%; under `O=C(Nc1cccc(-c2nc3ccccc3o2)c1)c1cc([N+](=O)[O-])ccc1N1CCOCC1`, inactive: -17.8%.

Regarding `CC(=O)Nc1ccc(NS(=O)(=O)c2ccc3c(c2)CC(C)N3C(=O)C2CCC2)cc1` (centres undefined), the “activity change, positive = activation” value was inactive: -26.4%. Under `COC(=O)CC1Oc2ccc(F)cc2-n2cc(-c3ccc(Cl)cc3)nc21` (centres undefined) stands inactive: -25%; under `COc1ccc(NC(=O)CN2CCCN(S(=O)(=O)c3ccc(Br)cc3)CC2)c(OC)c1`, inactive: 4.51% [at 11.5 µM, percent change from vehicle, -100% = no light].

As for `Cc1cccc(-c2nc(CCNC(=O)c3ccco3)cs2)c1`, the “activity change, positive = activation” value was inactive: -19.5%. Under `CCOC(=O)c1ccc(NC(=O)CCS(=O)(=O)c2ccc(C)cc2)cc1` stands inactive: -24.6%; under `O=C(c1cc2ccc3cccnc3c2[nH]1)N1CCN(c2cccc(C(F)(F)F)c2)CC1`, inactive: 0.824%.

As for `Cc1ccc(NC(=O)c2oc3ccc(S(=O)(=O)N4CCCCC4)cc3c2C)cc1C`, the “activity change, positive = activation” value was inactive: 1.51%. Under `COc1ccc2c(c1)c1c(c(=O)n(CCc3ccccc3)c(=O)n1Cc1ccccc1)n2C` stands inactive: -10.8%; under `Cc1ccc(C)c2sc(NC(=O)c3ccc(S(=O)(=O)N4CCCC4)cc3)nc12`, inactive: -29.8%. Under `CCOc1ccc(CNC(=O)c2ccc3c(c2)nc2n3CCOC2)cc1` stands inactive: 19.2%; under `CC(=O)N1CCOc2cc(S(=O)(=O)NCc3ccc(C)cc3)c(C)cc21`, inactive: -10.7%; under `Cc1c(CNCc2ccc(OC(C)C)cc2)c(C(=O)O)c(C)n1Cc1ccc(Cl)cc1`, inactive: -7.26%. The figure for `CCN1CCN(CCCNC(=O)c2cc3c(=O)n(CC)c4ccccc4c3s2)CC1` is inactive: -2.13%; for `COc1ccc(N(C(=O)c2ccccc2F)S(=O)(=O)c2ccc3c(c2)n(C)c(=O)n3C)cc1` it is inactive: -8.17%; for `COc1ccc(-c2cc(C(F)(F)F)nc(SCC(=O)N(C)Cc3ccccc3)n2)cc1OC` it is inactive: -36.1%. Regarding `COc1ccc2nc(S(=O)Cc3ncc(C)c(OC)c3C)[nH]c2c1` (centres undefined), the activity change, positive = activation entry was “inactive”. On to `CCN1c2ccccc2-c2nc(SCC(=O)Nc3cccc(C(F)(F)F)c3)ncc2S1(=O)=O`, for which the “activity change, positive = activation” value is inactive: -25.7%. The figure for `CCC(C)(C)NS(=O)(=O)c1cc(-c2cc(C)no2)ccc1C` is inactive: -21.2%; for `COc1cc(O)ccc1C1CC(=O)Nc2c1c(=O)nc(SCc1ccccc1C)n2C` (centres undefined) it is inactive: -15%. The figure for `Cc1ccc(C)c(CN2C(=O)c3ccccc3S(=O)c3ccc(C(=O)N4CCC(C)CC4)cc32)c1` (centres undefined) is inactive: -38.1%.
